Laboratory results: article PMC7960550
These are yes or no findings as the source states them, for the method shown. In cells and extracts the contact can be indirect. Some entries that bind do so weakly or less than the wild type.

Chains of the proteins cited; added tags and fusions are not shown.
UniProt Q93009: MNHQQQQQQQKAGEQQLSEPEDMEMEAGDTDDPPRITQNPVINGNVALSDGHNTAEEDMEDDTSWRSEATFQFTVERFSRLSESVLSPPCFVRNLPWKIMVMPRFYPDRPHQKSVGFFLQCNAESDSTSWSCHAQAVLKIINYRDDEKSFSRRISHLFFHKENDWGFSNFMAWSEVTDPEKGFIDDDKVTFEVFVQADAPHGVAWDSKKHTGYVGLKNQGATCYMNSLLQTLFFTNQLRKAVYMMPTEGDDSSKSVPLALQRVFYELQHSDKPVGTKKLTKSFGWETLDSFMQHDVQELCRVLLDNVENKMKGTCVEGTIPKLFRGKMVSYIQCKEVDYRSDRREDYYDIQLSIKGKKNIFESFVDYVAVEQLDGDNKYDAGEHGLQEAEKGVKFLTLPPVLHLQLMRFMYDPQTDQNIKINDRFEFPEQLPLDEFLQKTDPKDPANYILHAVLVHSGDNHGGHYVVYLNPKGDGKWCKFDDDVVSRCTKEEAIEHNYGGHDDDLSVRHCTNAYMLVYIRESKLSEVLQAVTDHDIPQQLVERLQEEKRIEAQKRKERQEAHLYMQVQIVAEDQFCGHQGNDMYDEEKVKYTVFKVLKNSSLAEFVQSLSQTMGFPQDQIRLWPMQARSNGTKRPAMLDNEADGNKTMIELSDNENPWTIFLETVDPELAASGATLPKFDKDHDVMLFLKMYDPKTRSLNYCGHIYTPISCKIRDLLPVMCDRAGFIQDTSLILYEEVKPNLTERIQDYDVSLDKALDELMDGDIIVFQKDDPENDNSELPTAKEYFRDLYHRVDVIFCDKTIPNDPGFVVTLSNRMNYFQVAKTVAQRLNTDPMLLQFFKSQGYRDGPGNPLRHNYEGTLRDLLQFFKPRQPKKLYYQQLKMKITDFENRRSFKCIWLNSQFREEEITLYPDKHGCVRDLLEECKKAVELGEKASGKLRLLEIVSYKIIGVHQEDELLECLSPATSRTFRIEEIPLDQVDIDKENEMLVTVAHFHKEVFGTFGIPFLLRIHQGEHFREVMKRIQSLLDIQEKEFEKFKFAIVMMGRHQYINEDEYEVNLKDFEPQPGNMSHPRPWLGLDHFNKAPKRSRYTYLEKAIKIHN
UniProt P51784: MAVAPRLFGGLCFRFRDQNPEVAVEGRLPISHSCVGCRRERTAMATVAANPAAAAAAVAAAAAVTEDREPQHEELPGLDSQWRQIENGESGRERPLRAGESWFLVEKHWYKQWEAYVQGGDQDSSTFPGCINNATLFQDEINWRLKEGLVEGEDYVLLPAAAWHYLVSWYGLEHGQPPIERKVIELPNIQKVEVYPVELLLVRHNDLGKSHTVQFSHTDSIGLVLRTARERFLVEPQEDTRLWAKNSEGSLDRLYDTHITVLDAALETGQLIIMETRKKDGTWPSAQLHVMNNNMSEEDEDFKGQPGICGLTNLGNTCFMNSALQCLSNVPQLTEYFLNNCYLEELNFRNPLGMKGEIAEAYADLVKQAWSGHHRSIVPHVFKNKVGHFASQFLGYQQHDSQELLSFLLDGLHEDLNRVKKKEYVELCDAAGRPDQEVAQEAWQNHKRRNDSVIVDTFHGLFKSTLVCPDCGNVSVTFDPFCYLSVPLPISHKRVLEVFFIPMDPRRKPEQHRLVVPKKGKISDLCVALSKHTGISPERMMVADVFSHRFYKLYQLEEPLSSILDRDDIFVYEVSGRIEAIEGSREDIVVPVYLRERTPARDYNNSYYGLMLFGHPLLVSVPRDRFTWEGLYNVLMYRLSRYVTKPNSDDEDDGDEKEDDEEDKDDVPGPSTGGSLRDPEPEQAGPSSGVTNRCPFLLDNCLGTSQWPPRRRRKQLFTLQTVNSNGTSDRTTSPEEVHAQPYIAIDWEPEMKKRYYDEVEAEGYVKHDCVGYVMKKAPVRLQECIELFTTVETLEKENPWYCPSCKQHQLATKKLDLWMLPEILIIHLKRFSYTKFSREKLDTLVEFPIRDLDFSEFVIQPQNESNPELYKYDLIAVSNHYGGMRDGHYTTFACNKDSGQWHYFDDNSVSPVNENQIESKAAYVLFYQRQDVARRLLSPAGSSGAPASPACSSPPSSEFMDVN

Assays:
Assay in all cases: co-IP; HEK 293T cells transfected with SFB-tagged (and Myc-tagged) constructs, 24 h; lysed in NETN buffer; S-protein agarose beads overnight at 4 °C; western blot; SFB-SPRTN with USP11 also after 20 μM VP16 for 4 h, CPT, formaldehyde or hydroxyurea (slight increase)
[1] = biological target: T1, SFB-SPRTN full-length (FL) (UniProt Q9H040)
T1 sequence: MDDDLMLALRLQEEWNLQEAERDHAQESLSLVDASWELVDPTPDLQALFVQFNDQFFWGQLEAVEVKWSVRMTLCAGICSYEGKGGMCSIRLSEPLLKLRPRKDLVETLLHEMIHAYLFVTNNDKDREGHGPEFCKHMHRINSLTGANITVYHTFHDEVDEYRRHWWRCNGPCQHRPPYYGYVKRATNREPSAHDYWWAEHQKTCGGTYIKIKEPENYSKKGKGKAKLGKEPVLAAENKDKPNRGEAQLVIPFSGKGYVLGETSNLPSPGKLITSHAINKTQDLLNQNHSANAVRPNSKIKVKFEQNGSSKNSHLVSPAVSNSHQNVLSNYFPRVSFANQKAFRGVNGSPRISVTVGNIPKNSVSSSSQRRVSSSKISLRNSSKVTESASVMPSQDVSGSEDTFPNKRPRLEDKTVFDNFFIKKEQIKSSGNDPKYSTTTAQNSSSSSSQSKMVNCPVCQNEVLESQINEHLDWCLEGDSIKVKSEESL

[2] = biological target: T2, SFB-SPRTN with deletion of the 129 to 212 aa region (UniProt Q9H040)
T2 sequence: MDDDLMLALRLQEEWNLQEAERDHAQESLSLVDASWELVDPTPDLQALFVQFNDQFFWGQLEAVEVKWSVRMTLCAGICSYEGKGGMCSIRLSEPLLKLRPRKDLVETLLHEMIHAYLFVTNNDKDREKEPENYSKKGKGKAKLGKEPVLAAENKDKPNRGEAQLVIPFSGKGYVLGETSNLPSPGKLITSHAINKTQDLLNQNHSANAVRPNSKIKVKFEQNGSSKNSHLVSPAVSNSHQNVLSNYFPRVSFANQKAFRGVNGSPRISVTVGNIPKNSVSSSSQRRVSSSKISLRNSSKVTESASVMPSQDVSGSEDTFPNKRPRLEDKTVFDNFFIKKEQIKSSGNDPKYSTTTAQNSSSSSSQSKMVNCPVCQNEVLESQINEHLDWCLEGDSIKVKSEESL

SFB-USP7 = SFB-USP7 (UniProt Q93009)
[3] = biological target: T3, SFB-SPRTN with deletion of the 186 to 212 aa fragment (UniProt Q9H040)
T3 sequence: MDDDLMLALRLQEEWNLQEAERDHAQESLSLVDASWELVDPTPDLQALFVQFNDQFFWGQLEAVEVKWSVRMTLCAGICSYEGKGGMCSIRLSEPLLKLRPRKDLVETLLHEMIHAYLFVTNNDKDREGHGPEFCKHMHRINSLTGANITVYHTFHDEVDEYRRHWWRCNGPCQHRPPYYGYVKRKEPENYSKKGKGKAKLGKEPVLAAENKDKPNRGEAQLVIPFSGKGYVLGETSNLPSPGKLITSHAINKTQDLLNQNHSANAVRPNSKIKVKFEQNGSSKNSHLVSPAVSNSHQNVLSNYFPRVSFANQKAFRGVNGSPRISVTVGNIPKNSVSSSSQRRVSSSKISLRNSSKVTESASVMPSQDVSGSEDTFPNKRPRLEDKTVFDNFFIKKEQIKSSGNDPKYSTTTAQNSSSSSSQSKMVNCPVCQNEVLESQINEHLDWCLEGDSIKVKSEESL

binding [1]	binding [2]	binding (SFB-USP7)	binding [3]	Substance
binds	–	–	–	Myc-USP11 full-length (FL) (from UniProt P51784 1-963)
binds	no binding	binds	binds	Endogenous USP11 (from UniProt P51784 1-963)
